Data as given in the supplement of paper PMC3334620.
Whole data set: some 33,000 sequences, median “E-score (-0.5 to 0.5)” near -0.021, cut for the highest 2% near 0.32. This is one part of the list.

Biological target: T1, Zap1 (UniProt P47043)
T1 sequence: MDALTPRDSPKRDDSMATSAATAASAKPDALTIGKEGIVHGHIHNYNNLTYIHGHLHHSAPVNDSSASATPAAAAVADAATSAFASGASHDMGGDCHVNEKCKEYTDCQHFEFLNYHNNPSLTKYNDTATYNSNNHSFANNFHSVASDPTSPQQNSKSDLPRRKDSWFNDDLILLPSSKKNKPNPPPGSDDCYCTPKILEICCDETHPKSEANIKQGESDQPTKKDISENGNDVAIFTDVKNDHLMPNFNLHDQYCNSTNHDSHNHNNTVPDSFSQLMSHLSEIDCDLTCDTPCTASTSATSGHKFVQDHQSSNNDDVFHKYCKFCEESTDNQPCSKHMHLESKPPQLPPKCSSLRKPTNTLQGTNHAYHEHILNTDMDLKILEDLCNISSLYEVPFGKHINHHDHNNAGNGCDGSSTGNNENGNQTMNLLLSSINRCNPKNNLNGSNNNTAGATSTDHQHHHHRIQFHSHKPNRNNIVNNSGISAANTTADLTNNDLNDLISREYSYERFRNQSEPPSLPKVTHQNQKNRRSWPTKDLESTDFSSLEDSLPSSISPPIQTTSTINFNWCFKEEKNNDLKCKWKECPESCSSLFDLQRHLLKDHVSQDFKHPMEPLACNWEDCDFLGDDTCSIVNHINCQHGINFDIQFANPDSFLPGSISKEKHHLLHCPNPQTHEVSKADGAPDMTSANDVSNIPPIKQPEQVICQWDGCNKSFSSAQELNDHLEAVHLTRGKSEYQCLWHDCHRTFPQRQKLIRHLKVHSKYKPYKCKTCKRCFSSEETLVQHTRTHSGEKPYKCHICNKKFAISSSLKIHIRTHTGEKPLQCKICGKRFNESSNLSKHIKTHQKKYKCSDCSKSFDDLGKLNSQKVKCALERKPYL
Assay: PBM E-score (8-mer binding enrichment) (E-score (-0.5 to 0.5)); higher = stronger / more preferred TF binding; most listed sequences are background and not binding sites
Conditions: protein concentration: 200 nM; construct: GST-full length
How it was run: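 PURExpress in vitro transcription/translation supplied GST-tagged yeast transcription factors, either full-length or DNA-binding domain. Applied at about 100-200 nM to universal all-10-mer Agilent arrays double-stranded by primer extension, the bound protein was detected with fluorescent anti-GST. E-scores, modified Wilcoxon-Mann-Whitney statistics, were given by the Universal PBM Analysis Suite to ungapped eight-base words pooled with their reverse complements after masliner normalisation.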

| Sequence | PBM E-score |
| --- | --- |
| TACGGACA | 0.0932 |
| ATCTTGTA | 0.0449 |
| TAAGCCAA | 0.11 |
| TACACGCA | -0.176 |
| ACACAATA | 0.192 |
| GACAGTGA | -0.0563 |
| GAAAGCGA | -0.0191 |
| AACTGCTA | -0.0604 |
| AGCCTCTG | -0.219 |
| AACTAAGA | 0.0908 |
| ACATCCAT | -0.0784 |
| GATCTAGA | 0.0249 |
| CAGGTGTC | -0.0194 |
| CCCAAAGA | 0.161 |
| CATTATCA | 0.0485 |
| ACCGCTAA | 0.247 |
| AGACAATA | 0.0476 |
| AGCGAAAG | -0.0949 |
| AATTTAAT | 0.145 |
| GCGAGAGC | -0.0306 |
| GCAAATGA | -0.00579 |
| CAAATGCA | 0.00501 |

| Sequence | PBM E-score |
| --- | --- |
| AATTTGCT | -0.0749 |
| TAGTATGA | 0.215 |
| CGAAAGAG | -0.0292 |
| CCGAGCCA | -0.0873 |
| ATATTGGA | -0.014 |
| TCAGGAAA | -0.0306 |
| CTCGGTCA | 0.00894 |
| AAGTGATC | 0.131 |
| GATTACGC | 0.0927 |
| ACCCGGGG | 0.289 |
| TAGTGGGA | -0.179 |
| CCTACGCC | -0.292 |
| AGAGCGAG | -0.14 |
| ACACACCA | 0.137 |
| GTAGACGA | -0.0824 |
| ATCACGCC | -0.0547 |
| ATAGAAGA | -0.083 |
| GACCAACA | 0.21 |
| GCATCATA | 0.039 |
| ACATAGGT | 0.296 |
| GACGATAC | -0.0336 |
| TCATAGAA | 0.144 |

| Sequence | PBM E-score |
| --- | --- |
| GAAAGTAC | 0.109 |
| ACACTTGA | -0.0766 |
| CCACATAC | 0.109 |
| AGAGCCCC | -0.221 |
| AACCACTA | 0.369 |
| GCTTAACC | 0.327 |
| GGACGGGA | -0.214 |
| GAGTAAGA | -0.0163 |
| ATCACGGC | 0.0529 |
| CGCTTTTA | 0.129 |
| GTTCCTGA | -0.0294 |
| AATATGAT | 0.239 |
| AGTGACGC | -0.0868 |
| ACGATCGA | -0.0556 |
| AGTGCAGC | -0.109 |
| CTAGAGGC | -0.0764 |
| CCGTCTCG | -0.164 |
| GTGCCGGA | -0.119 |
| ATGACAGG | -0.0703 |
| AAATGCAT | 0.00383 |
| AGATGCTA | -0.189 |
| ACACGTGG | -0.0751 |

| Sequence | PBM E-score |
| --- | --- |
| CTGTCGGA | -0.182 |
| AACATGGG | 0.0706 |
| GGCATAAC | 0.127 |
| ACAAGTCA | -0.157 |
| TACAGTGA | 0.0125 |
| CCAATCGC | 0.0782 |
| AGCAAGGC | -0.193 |
| TCCAGCCA | -0.147 |
| ACCCTTGG | 0.365 |
| TGCAGGCA | -0.237 |
| ATTACGTC | -0.052 |
| CGCATAAC | 0.175 |
| TATTCCGA | 0.169 |
| AACTTGCT | -0.17 |
| ACCTGGAG | 0.184 |
| TACTGCAA | 0.123 |
| GACTTCCC | -0.108 |
| CGAAACAC | 0.00608 |
| CAGGCCTC | -0.296 |
| GCTCGACA | -0.205 |
